Test results taken from PubChem BioAssay AID651554 (The Scripps Research Institute Molecular Screening Center, 2012).
A number of entries come with more than one value. The other results are left out here.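 Rule for the calls: active = either panel giving IC50 at or below 10 µM; inactive = both panels giving IC50 over 10 µM.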 There may be further records. Results that share an entry are repeats across runs, samples, wells, individuals or studies. A tag in brackets gives the origin of a value. Letters count within one entry.

Molecular target: Melanocortin receptor 4 (Homo sapiens) (UniProt P32245)
Test: MC4R antagonists of Melanotan II cAMP, late-stage follow-up, cell-based, FRET, biased ligands (AID 651554)
Conditions: U2OS MC4R, Melanotan II cAMP TR-FRET antagonist; run 1

Sequence of UniProt P32245 (P32245 whole entry, looked up): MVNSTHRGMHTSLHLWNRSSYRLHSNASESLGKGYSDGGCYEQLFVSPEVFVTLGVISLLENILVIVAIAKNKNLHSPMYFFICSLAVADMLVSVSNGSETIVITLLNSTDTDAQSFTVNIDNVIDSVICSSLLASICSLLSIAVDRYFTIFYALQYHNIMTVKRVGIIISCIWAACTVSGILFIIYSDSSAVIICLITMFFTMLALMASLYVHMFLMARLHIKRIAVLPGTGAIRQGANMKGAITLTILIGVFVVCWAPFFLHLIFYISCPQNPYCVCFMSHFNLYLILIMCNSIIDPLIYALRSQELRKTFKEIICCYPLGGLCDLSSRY

For `CCC1CCCCN1S(=O)(=O)c1ccc(NC(=O)c2nc(S(C)(=O)=O)ncc2Cl)cc1` (stereo unspecified), the IC50 was 6.37 µM [sample A] and inactive [sample B].
